Results published in PubChem BioAssay AID463173 (ICCB-Longwood Screening Facility, Harvard Medical School, 2010).
The campaign covered roughly 52,000 compounds. About 4,300 (8.3%) were called active. Rule as the data show it: active = survival mostly below about 52% (no sharp cut-off); inactive = mostly above about 56%. The list shows a part of the results.

What follows are compounds tested on DeltatarO mutant (assay: growth inhibition of S. aureus wild type versus tarO mutant, primary screen, teichoic acid synthesis inhibitors, RN4220, OD600 (AID 463173)). Settings: OD600, 18 h, hits give low values, screened at 18.75 µg/mL (by protocol).

SMILES	survival
O=C(Oc1ccccc1OC(=O)N1CCCCC1)N1CCCCC1	inactive: 79%
CCN(CC)CCNC(=O)Cn1cnc2sc(C)c(S(=O)(=O)N3CCN(c4ccccc4OC)CC3)c2c1=O	inactive: 83%
CCOc1ccc(NC(=O)CSc2oc(-c3ccco3)nc2S(=O)(=O)c2ccc(Cl)cc2)cc1	inactive: 119%
COc1cccc(C2C=C(c3ccc(C)cc3)Nc3c(C(=O)Nc4ccc(F)cc4)cnn32)c1OC (centres undefined)	active: 0%
O=C(Nc1ccccc1C(F)(F)F)N1Cc2ccccc2Oc2ncccc21	inactive: 73%
CC(NC(=O)c1ccc(Cn2c(SCc3ccccc3)nc3cccnc32)cc1)c1ccccc1 (centres undefined)	inactive: 75%
COc1ccc(CN(C(=O)c2ccc(OCC(C)C)cc2)C2CCS(=O)(=O)C2)cc1 (centres undefined)	inactive: 93%
COc1ccccc1Nc1nn2c(=O)c3ccc(C(=O)NC4CCCCC4)cc3nc2s1	inactive: 74%
CCOc1ccc(N(CC(=O)NCc2ccc(C)cc2)S(=O)(=O)c2c(C)[nH]c(=O)[nH]c2=O)cc1	inactive: 84%
Brc1ccc(-c2csc(-c3nc(-c4ccc(Br)s4)cs3)n2)cc1	inactive: 81%
CCOC(=O)N1CCc2c(sc(NCc3ccc(N(C)C)cc3)c2C(=O)Nc2ccccc2OCC)C1	inactive: 101%
CCN(CC)C(=O)c1ccc2nc(N)sc2c1	inactive: 101%
CC(=O)N1c2ccc(S(=O)(=O)NCC3CCC(C(=O)Nc4cccc(F)c4)CC3)cc2CC1C (centres undefined)	inactive: 93%
CCN(CC)c1nc(Nc2ccc(OC)cc2)nc(Nc2ccc(OC)cc2)n1	inactive: 74%
CCc1cccc(-n2nnc(-c3nc(-c4ccc5c(c4)OCO5)no3)c2C)c1	inactive: 87%
Cc1cccc(C(=O)NCc2nnc(SCC(=O)Nc3ccccc3F)n2-c2ccccc2)c1	inactive: 72%
CC(C)C(c1nnnn1Cc1ccccc1)N1CCCc2ccccc21 (centres undefined)	inactive: 101%
COc1ccc(NC(=O)CSc2nc(-c3ccccc3)c3ccccc3n2)cc1	inactive: 78%
CCOc1ccc(-c2n[nH]c3c2C(c2cccs2)N(c2ccc(Br)cc2)C3=O)cc1 (centres undefined)	inactive: 79%
CCOC(=O)c1cc(-c2ccc(OC)cc2)n(CCC(=O)NC2CCC(C)CC2)c1C (centres undefined)	inactive: 98%
COc1ccc(N2CCN(C(=O)Nc3ccc(Cl)cc3)CC2)cc1	inactive: 168%
CCCCn1c(SCC(N)=O)nnc1-c1ccco1	inactive: 103%
Cc1cccc(NC(=O)CSc2nc3c(sc4ccccc43)c(=O)n2CCCC(=O)NC2CCCC2)c1	inactive: 87%

SMILES	survival
Cc1cccc(C(=O)Nc2ccc(S(=O)(=O)N(Cc3ccccc3)c3ccccc3)cc2)c1	inactive: 80%
O=C(C1COc2ccccc2O1)N1CCCC1 (centres undefined)	inactive: 96%
COC(=O)Cn1cc(C(=O)c2cccs2)c2ccccc21	inactive: 82%
O=C1CSC(=O)N1CCOc1ccc(F)cc1	inactive: 80%
CCOC(=O)Cn1cnc2scc(-c3ccccc3)c2c1=O	inactive: 85%
Nc1cnc2cccc3c2c1-c1ccccc1C3=O	inactive: 86%
COc1ccc(C(=O)NCCn2cc(SC(C)c3ccccc3)c3ccccc32)cc1OC (centres undefined)	inactive: 61%
Cc1ccc(N(C)C(=O)CCS(=O)(=O)c2cc3c(cc2Cl)NC(=O)CO3)cc1	inactive: 84%
COc1cc(NC(=O)NCCN2CCN(c3ccccc3)CC2)cc(OC)c1OC	inactive: 94%
Cc1cc(C)c(S(=O)(=O)Nc2ccc(-c3ccc(N4CCCCCC4)nn3)cc2)cc1C	inactive: 65%
CCN(CC)c1ccc2cc(-c3nc(-c4ccccc4F)no3)c(=O)oc2c1	inactive: 101%
Cc1nc2ccn(Cc3cccnc3)c(=O)c2cc1C(=O)Nc1ccc(F)cc1F	inactive: 92%
COCCCNC(=O)c1ccc(C)c(-n2c(C)nc3cccnc32)c1	inactive: 89%
O=S(=O)(Nc1ccc(F)cc1F)c1ccc(-n2cccn2)cc1	inactive: 70%
CCOc1ccc(-c2nnc(SCC(=O)c3ccc(Br)cc3)n2-c2ccccc2)cc1	inactive: 72%
O=C(CN1C(=O)CCc2cc(S(=O)(=O)N3CCOCC3)ccc21)NCc1ccc(Cl)cc1	inactive: 73%
CCOc1ccc(CCNC(=O)c2cc3c(s2)-c2c(C)cccc2OC3)cc1	inactive: 98%
CCc1ccc(NC(=O)Nc2nnc(N(C)C3CCCCC3)s2)cc1	inactive: 112%
CC(=O)c1ccc(NC(=O)Cn2c(=O)nc(-c3ccccc3)c3cc(Cl)ccc32)cc1	inactive: 115%
O=C(Nc1cccc(C(F)(F)F)c1)c1ccc2snnc2c1	inactive: 111%
Nc1ncnc2c1ncn2C1OC(C(=O)O)C(O)C1O (centres undefined)	inactive: 92%
CCC(C)NC(=O)CSc1nc2cc3c(cc2c(=O)n1Cc1ccc(C(=O)NCCc2ccc(OC)c(OC)c2)cc1)OCO3 (centres undefined)	inactive: 85%
Cc1cccc(N2CCN(C(=O)C3CCN(c4ncnc5c4nc4n5CCCCC4)CC3)CC2)c1C	inactive: 70%

SMILES	survival
COc1cccc(NC(=O)c2oc3ccccc3c2NC(=O)c2cc3ccccc3o2)c1	inactive: 51%
Cc1ccc(NC(=O)CN2C(=O)COc3ccc(S(=O)(=O)Nc4ccccc4)cc32)c(C)c1	inactive: 54%
COc1ccc(CNC(=O)c2ccc3nc(C(C)C)oc3c2)cc1OC	inactive: 68%
Cc1cc(C)c(NC(=O)CSc2nc3ccncc3[nH]2)c(C)c1	inactive: 119%
O=C(Nc1cccc2ccccc12)OC1C=CS(=O)(=O)C1 (centres undefined)	inactive: 96%
CCOC(=O)Cn1c(=O)oc2cc(S(=O)(=O)N3CCC(C(=O)OCC)CC3)ccc21	inactive: 86%
Cc1ccc(OCC(=O)Nc2ccc3nc(SCCOc4ccccc4)sc3c2)cc1	inactive: 83%
COc1ccc(NC(=O)Cn2nnc3sc4c(c3c2=O)CCCC4)cc1	inactive: 61%
COc1cc2ccccc2cc1C(=O)Nc1cccc(-c2nc3cc(C)ccc3o2)c1C	inactive: 55%
Cc1cccc(NC(=O)C2CCCN(S(=O)(=O)c3ccc(Br)s3)C2)c1 (centres undefined)	inactive: 69%
COc1ccc(NC(=O)CS(=O)CC(=O)Nc2cc(OC)ccc2OC)cc1 (centres undefined)	inactive: 102%
Cc1ccc(C2=NC(c3ccccc3)=Nc3ccc(Cl)cc3N2)cc1	inactive: 89%
CC(C)NC(=O)C1CCN(c2ccc(S(=O)(=O)N3CCOCC3)cc2Cl)CC1	inactive: 81%
COC(=O)c1cc2oc3ccccc3c2n1Cc1c(C)cc(C)cc1C	inactive: 130%
CCc1ccc(NC(=O)CCc2nnc3n(C)c(=O)c4sccc4n23)cc1	inactive: 65%
COCCCNC(=O)CSc1nc(-c2ccc(OC)c(OC)c2)[nH]c1-c1ccc(F)cc1	inactive: 81%
Cc1cc(C)c2c(=O)cc(C(=O)NCc3ccc(S(N)(=O)=O)cc3)oc2c1	inactive: 117%
CC(C)(C)OC(=O)N1CCC(c2c(C(=O)NCc3ccco3)cnn2-c2ccccc2Cl)CC1	inactive: 76%
Cc1nn(CCCC(=O)NCc2ccccc2)c(=O)c2cc3sccc3n12	inactive: 76%
CC(=O)c1cc(-c2ccccc2)n(CCC(=O)NC(C)c2ccccc2)c1C (centres undefined)	inactive: 67%
COC(=O)c1ccccc1NS(=O)(=O)c1ccc2c(c1)CCCN2C(C)=O	inactive: 74%
CCCC(=O)n1nc(-c2cccnc2)nc1NCc1ccc(OC)cc1	inactive: 70%
COc1ccc(C(=O)Nc2cc3c(cc2N2CCCC2)n(C)c(=O)c(=O)n3C)cc1OC	inactive: 97%

SMILES	survival
COc1cc(CN2CCc3nc(N4CCN(c5ccccn5)CC4)ncc3C2)cc(OC)c1OC	inactive: 89%
O=C(Nc1ccc(Cl)cc1C(F)(F)F)c1cc(S(=O)(=O)N2CCOCC2)ccc1F	inactive: 124%
CCOc1ccc(S(=O)(=O)n2nc(C)c(S(=O)(=O)N3CCCCC3)c2C)cc1	inactive: 89%
Cc1ccc(CNC(=O)c2c(C)oc3nc(C)nc(N4CCOCC4)c23)cc1	inactive: 98%
Cc1nn(C)c(C)c1N1C(=O)c2cccc3c(Br)ccc(c23)C1=O	inactive: 50%
CCc1ccc(-n2nc3cc(C)c(NC(=O)c4cc(OC)cc(OC)c4)cc3n2)cc1	inactive: 68%
CC(C)(C)c1ccc(C(=O)NCC(c2cccs2)S(=O)(=O)c2cccs2)cc1 (centres undefined)	inactive: 74%
CCOc1cc(C(=O)Nc2ccc(-c3nc4ccccc4s3)cc2Cl)cc(OCC)c1OCC	inactive: 92%
Cc1cccc(C)c1NC(=O)Cn1c(=O)n(Cc2ccc3c(c2)OCO3)c(=O)c2oc3ccccc3c21	inactive: 81%
O=C(c1ccccc1F)N(Cc1cccs1)c1ccc(O)cc1	inactive: 93%
COc1ccc(C(=O)Nc2cc(S(=O)(=O)c3ccc(Cl)cc3)c(O)c(C)c2C)cc1	inactive: 78%
Fc1ccc(-n2ncc3c(NCCC4=CCCCC4)ncnc32)cc1	inactive: 83%
CCOc1ccc(OCC)c(NC(=O)C(NS(=O)(=O)c2cccs2)c2ccccc2)c1 (centres undefined)	inactive: 66%
COc1ccccc1NC(=O)Cn1nc(-c2ccc(C)cc2)c2c(c1=O)CCCC2	inactive: 42%
Nc1c(-c2nc(-c3ccccc3)no2)nnn1CC(=O)Nc1cccc(F)c1	inactive: 84%
CCOc1cc(-c2ccc(OC(=O)c3ccc(C)cc3)c(OC)c2)cc(=O)c2c(C)oc(C)c12	inactive: 99%
CCN(CC)CCN(C(=O)c1ccco1)c1nc2cc(C)cc(C)c2s1	inactive: 81%
CCCN(CCC)S(=O)(=O)c1ccc(C(=O)Nc2cccc(-c3nc4ccccc4[nH]3)c2)cc1	inactive: 99%
CC(=O)c1ccc(NC(=O)CN(C)S(=O)(=O)c2cc3c(cc2Cl)NC(=O)CO3)cc1	inactive: 72%
Cc1ccc(NCc2cccn2-c2nnc(N3CCC(C(=O)NCCC(C)C)CC3)s2)cc1	inactive: 76%
